Experimental data from ChEMBL document CHEMBL4888484, “Replenishing the malaria drug discovery pipeline: Screening and hit evaluation of the MMV Hit Generation Library 1 (HGL1) against asexual blood stage Plasmodium falciparum ,using a nano luciferase reporter read-out” (2022).
Out of some 150,000 compounds screened, about 540 (0.36%) showed an effect of 50% or more. The list shows a part of the results.

Test system: Plasmodium falciparum
Experiment: Primary screen in NF54 nanoGlo assay, in single point, at 2uM, 72h; a lower Z score goes with more inhibition
Format: functional, Erythrocyte
Conditions: timepoint 72 hour

Q: Which “% Inhibition” value does the source give for CN(CCNS(=O)(=O)c1ccc2ccccc2c1)C1CC1 here?
A: -6%

Q: What about the Z score of the same molecule?
A: 0.59

Q: Which “% Inhibition” value does the source give for COc1ccc(-n2cc(-c3ccc(Cl)cc3)nc2NC(=O)CN(CC(C)C)C(C)=O)cc1 here?
A: 4%

Q: What about the Z score of the same molecule?
A: -0.79

Q: Which “% Inhibition” value does the source give for Cc1noc([C@H](C)NC(=O)c2nccn2C)n1 here?
A: -4%

Q: What about the Z score of the same molecule?
A: 0.71

Q: With CN(CCCc1cccnc1)C[C@H]1COCCO1 as the molecule, how does the “% Inhibition” value read?
A: -12%

Q: And the Z score?
A: 1.54

Q: Which “% Inhibition” value does the source give for CC(C)CN1CCC(C(=O)N2CC3CCC(NC(=O)OC(C)(C)C)C3C2)C1 (stereo unspecified) here?
A: -2%

Q: And the Z score?
A: 0.31

Q: How did the “% Inhibition” value turn out when COc1ccc(CN2CC(c3ccccn3)C2)cc1OC[C@@H](O)CN(C)C(C)C was run?
A: 4%

Q: And the Z score?
A: -0.66

Q: COc1ccccc1N1CCN(C(=O)Cc2ccc(C)nc2)CC1 was tested. Which “% Inhibition” value did it give?
A: -15%

Q: What about the Z score of the same molecule?
A: 2.38

Q: For Cn1c(=O)c2c(n(C)c1=O)[n+](C)cn2Cc1ccccc1, which “% Inhibition” value is on record?
A: 29%

Q: What about the Z score of the same molecule?
A: -3.75

Q: Cc1ccc(CNC(=O)N2CCC3(CC2)CN(C(C)C)[C@@H]3c2ccccc2)cc1 was tested. Which “% Inhibition” value did it give?
A: 0%

Q: What about the Z score of the same molecule?
A: 0

Q: Which results are given for CCOC(=O)c1snc(C(=O)N2CCOCC2)c1N?
A: % Inhibition: 3%; Z score: -0.44

Q: Which “% Inhibition” value does the source give for c1ccc2c(-c3nc4c(c(N5CCC(N6CCCC6)CC5)n3)CNC4)c[nH]c2c1 here?
A: -14%

Q: And the Z score?
A: 1.36

Q: With Cc1ccc(NC(=O)[C@@](F)(Cl)C(F)(F)F)c(C)c1 as the molecule, how does the “% Inhibition” value read?
A: -8%

Q: What about the Z score of the same molecule?
A: 0.88

Q: For Cc1ccsc1C(=O)NC(C)(C)c1nc2c(c(C(N)=O)n1)OCO2, which “% Inhibition” value is on record?
A: -3%

Q: And the Z score?
A: 0.56

Q: What does the source list for CCCn1ccnc1CN1C[C@@H]2CC[C@H]1CN(Cc1c(C)noc1C)C2?
A: % Inhibition: 0%; Z score: 0.04

Q: For Cc1cnc(CN2CCC[C@@H](NC(=O)OC(C)(C)C)C2)s1, which “% Inhibition” value is on record?
A: 1%

Q: What about the Z score of the same molecule?
A: -0.13

Q: Which results are given for FC(F)c1cncc(-c2cnn(C[C@H]3CCOC3)c2)c1?
A: % Inhibition: -5%; Z score: 0.69

Q: O=C([C@H]1CCC(=O)N(C2CCCC2)C1)N1CCN(c2nccs2)CC1 was tested. Which “% Inhibition” value did it give?
A: -9%

Q: What about the Z score of the same molecule?
A: 1.82

Q: For Cc1[nH]ncc1C(=O)NC[C@H](O)c1cc2ccccc2s1, which “% Inhibition” value is on record?
A: -2%

Q: And the Z score?
A: 0.4

Q: Which results are given for Cc1nc(Cn2cc(C3CCCCC3)nn2)oc1C?
A: % Inhibition: -6%; Z score: 0.87

Q: Which “% Inhibition” value does the source give for COc1ccccc1NC(=O)CC1=Nc2ccccc2S(=O)(=O)N1 here?
A: 3%

Q: What about the Z score of the same molecule?
A: -0.33

Q: Which “% Inhibition” value does the source give for CC1CCN(S(=O)(=O)N2CCN(Cc3cccnc3)CC2)CC1 here?
A: 2%

Q: What about the Z score of the same molecule?
A: -0.39

Q: For Cc1cc(NC(=O)NCCc2n[nH]c(=O)n2C)c(Cl)cc1F, which “% Inhibition” value is on record?
A: 12%

Q: What about the Z score of the same molecule?
A: -1.49

Q: Which “% Inhibition” value does the source give for CC1(C)CN(C2(CNC(=O)[C@H]3CCc4[nH]ncc4C3)CCCCC2)CCO1 here?
A: -1%

Q: And the Z score?
A: 0.2

Q: Which “% Inhibition” value does the source give for O=C(Cc1ccccc1)Nc1ccc(Nc2ccccc2)cc1 here?
A: -3%

Q: What about the Z score of the same molecule?
A: 0.47

Q: Which results are given for CC[C@H](C)N(CCO)Cc1cscn1?
A: % Inhibition: -6%; Z score: 0.83

Q: Which results are given for Cc1ccc(CN(Cc2ccccc2)C(=O)CN(C(=O)C2CCC2)C(C)C)o1?
A: % Inhibition: -3%; Z score: 0.5

Q: With COC(CNC(=O)C1CC(=O)N(C)C1)C(C)(C)C (stereo unspecified) as the molecule, how does the “% Inhibition” value read?
A: -9%

Q: What about the Z score of the same molecule?
A: 1.53

Q: CC(C)C(C)(C)CNCc1cncs1 was tested. Which “% Inhibition” value did it give?
A: 10%

Q: What about the Z score of the same molecule?
A: -0.92

Q: CCc1noc(CN(C)CCc2nc3ccccc3c(=O)[nH]2)n1 was tested. Which “% Inhibition” value did it give?
A: -15%

Q: And the Z score?
A: 2.64

Q: Which results are given for Cc1ccn(CCNc2nccc(-c3c(C)nn(C)c3C)n2)n1?
A: % Inhibition: 0%; Z score: 0.01

Q: COc1ccc(C(=O)Nc2cc(-c3cc(C)n(-c4ccccc4F)c3C)nn2-c2ccccc2)cc1OC was tested. Which “% Inhibition” value did it give?
A: 14%

Q: What about the Z score of the same molecule?
A: -2.66

Q: Which “% Inhibition” value does the source give for O=C(Cc1n[nH]c(=O)c2cc(-c3ccccc3)nn12)Nc1ccc(F)c(F)c1 here?
A: -3%

Q: And the Z score?
A: 0.43

Q: For NCC1(c2ccccc2)CCCCCC1, which “% Inhibition” value is on record?
A: -20%

Q: What about the Z score of the same molecule?
A: 2.04

Q: Which results are given for O=C(Cn1cnc2nc(N3CCOCC3)sc2c1=O)Nc1ccc(F)cc1?
A: % Inhibition: -3%; Z score: 0.31

Q: Which results are given for O=S(=O)(Cc1ccc(F)cc1)N1CC(C(F)F)C1?
A: % Inhibition: -8%; Z score: 0.94

Q: With C[C@@H](O)[C@@H]1NC(=O)[C@@H]2C[C@H](NC(=O)c3ccc(Cl)cc3)CN2C1=O as the molecule, how does the “% Inhibition” value read?
A: -10%

Q: What about the Z score of the same molecule?
A: 1.91

Q: CCCCc1nc(CN2CCC(c3nc(C)n[nH]3)CC2)c[nH]1 was tested. Which “% Inhibition” value did it give?
A: -8%

Q: And the Z score?
A: 1.34

Q: For CC(C)c1noc(N2CCc3sccc3C2)n1, which “% Inhibition” value is on record?
A: -11%

Q: What about the Z score of the same molecule?
A: 1.43

Q: What does the source list for O=C(Nc1cccc(-c2ccc3c(c2)OCCO3)n1)c1c[nH]nn1?
A: % Inhibition: -11%; Z score: 1.86

Q: With CCc1ccc(CN2CCN(c3cnc(CO)cn3)CC2)s1 as the molecule, how does the “% Inhibition” value read?
A: 0%

Q: What about the Z score of the same molecule?
A: -0.05

Q: CN(CCC1CCOCC1)c1nnc(-c2ccccn2)s1 was tested. Which “% Inhibition” value did it give?
A: -22%

Q: What about the Z score of the same molecule?
A: 3.34

Q: CCCCNS(=O)(=O)c1cc(C)c(Br)cc1OC was tested. Which “% Inhibition” value did it give?
A: 33%

Q: What about the Z score of the same molecule?
A: -3.69

Q: For CS(=O)(=O)c1ccccc1N1CCO[C@H](c2ccsc2)C1, which “% Inhibition” value is on record?
A: -2%

Q: What about the Z score of the same molecule?
A: 0.31
